This is one part of the list. No stated cut-off is given here; in the data, active = 3.2 or more and inactive = the rest. The signal is at background level for most entries.
What was measured:
Assay in all cases: enrichment score (SH2-bound / input frequency) (ratio); bacterial display of known human phosphotyrosine sites (pTyr-Var adds point mutants) read by sequencing; higher = stronger binding; tyrosines were phosphorylated by kinases first
Conditions in all cases: peptide library: pTyr-Var
SHP2 C-SH2 domain E139D = molecular target: SHP2 C-SH2 domain E139D
[1] = molecular target: SHP2 C-SH2 domain wild-type
SHP2 N-SH2 domain L43F = molecular target: SHP2 N-SH2 domain L43F
SHP2 N-SH2 domain T42A = molecular target: SHP2 N-SH2 domain T42A
SHP2 N-SH2 domain T52S = molecular target: SHP2 N-SH2 domain T52S
[2] = molecular target: SHP2 N-SH2 domain wild-type

Measured: enrichment score
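Further: displayed peptides selected on beads carrying the immobilized SH2 domain, with library peptides lacking any tyrosine serving as negative controls.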

B1: NKAPL_Y94_Y96C_YF (peptide)
chain: TSFSGYRCHRH
inactive: SHP2 C-SH2 domain E139D 1.1 | [1] 1.06 | SHP2 N-SH2 domain L43F 1.48 | SHP2 N-SH2 domain T42A 1.04 | SHP2 N-SH2 domain T52S 1.17 | [2] 0.785

B2: NGEF_Y288_A286S (peptide)
chain: TSESSYYKSLN
inactive: SHP2 C-SH2 domain E139D 0.451 | [1] 0.373 | SHP2 N-SH2 domain L43F 0.483 | SHP2 N-SH2 domain T42A 0.308 | SHP2 N-SH2 domain T52S 0.442 | [2] 0.503

B3: NLRP3_Y861 (peptide)
chain: SLTRLYVGENA
inactive: SHP2 C-SH2 domain E139D 0.745 | [1] 0.86 | SHP2 N-SH2 domain L43F 0.724 | SHP2 N-SH2 domain T42A 0.694 | SHP2 N-SH2 domain T52S 0.842 | [2] 0.716

B4: NF1_Y2508_V2511L_YF (peptide)
chain: FLAATYPTLGQ
inactive: SHP2 C-SH2 domain E139D 1.19 | [1] 0.769 | SHP2 N-SH2 domain L43F 0.881 | SHP2 N-SH2 domain T42A 1.05 | SHP2 N-SH2 domain T52S 1.11 | [2] 1.59

B5: NMNAT1_Y64 (peptide)
chain: GLIPAYHRVIM
inactive: SHP2 C-SH2 domain E139D 1.26 | [1] 1.14 | SHP2 N-SH2 domain L43F 1 | SHP2 N-SH2 domain T42A 1.28 | SHP2 N-SH2 domain T52S 1.06 | [2] 0.896

B6: NFKB1_Y485 (peptide)
chain: EVTLTYATGTK
inactive: SHP2 C-SH2 domain E139D 0.766 | [1] 0.969 | SHP2 N-SH2 domain L43F 0.845 | SHP2 N-SH2 domain T42A 0.776 | SHP2 N-SH2 domain T52S 0.857 | [2] 0.952

B7: NKAP_Y104_R106C (peptide)
chain: VYYGSYSCPYG
inactive: SHP2 C-SH2 domain E139D 0.797 | [1] 1.1 | SHP2 N-SH2 domain L43F 1.09 | SHP2 N-SH2 domain T42A 0.975 | SHP2 N-SH2 domain T52S 0.656 | [2] 1.17

B8: NEFL_Y443_YF (peptide)
chain: SFPSFYTSHVQ
inactive: SHP2 C-SH2 domain E139D 0.984 | [1] 0.975 | SHP2 N-SH2 domain L43F 0.948 | SHP2 N-SH2 domain T42A 0.865 | SHP2 N-SH2 domain T52S 0.947 | [2] 0.961

B9: NF1_Y491_Y489C (peptide)
chain: TRSCKYLLLSM
inactive: SHP2 C-SH2 domain E139D 1.4 | [1] 1.48 | SHP2 N-SH2 domain L43F 1.56 | SHP2 N-SH2 domain T42A 2.12 | SHP2 N-SH2 domain T52S 1.56 | [2] 1.47

B10: NF1_Y2508_YF (peptide)
chain: FLAATYPTVGQ
inactive: SHP2 C-SH2 domain E139D 1.11 | [1] 1.09 | SHP2 N-SH2 domain L43F 1.01 | SHP2 N-SH2 domain T42A 0.883 | SHP2 N-SH2 domain T52S 0.996 | [2] 0.835

B11: NEU1_Y251_G248S (peptide)
chain: VSSIPYGQPKQ
inactive: SHP2 C-SH2 domain E139D 0.607 | [1] 0.529 | SHP2 N-SH2 domain L43F 0.57 | SHP2 N-SH2 domain T42A 0.541 | SHP2 N-SH2 domain T52S 0.691 | [2] 0.611

B12: NF1_Y491_YF (peptide)
chain: TRSFKYLLLSM
active: SHP2 C-SH2 domain E139D 3.36 | SHP2 N-SH2 domain T42A 3.41
inactive: [1] 3.06 | SHP2 N-SH2 domain L43F 3.03 | SHP2 N-SH2 domain T52S 3.19 | [2] 3.09

B13: NFU1_Y194 (peptide)
chain: GGDVIYKGFED
inactive: SHP2 C-SH2 domain E139D 0.679 | [1] 0.624 | SHP2 N-SH2 domain L43F 0.728 | SHP2 N-SH2 domain T42A 0.546 | SHP2 N-SH2 domain T52S 0.712 | [2] 0.918

B14: NFU1_Y194_G189R (peptide)
chain: RGDVIYKGFED
inactive: SHP2 C-SH2 domain E139D 0.797 | [1] 0.618 | SHP2 N-SH2 domain L43F 0.744 | SHP2 N-SH2 domain T42A 0.626 | SHP2 N-SH2 domain T52S 0.588 | [2] 0.488

B15: NIPBL_Y247_D246G (peptide)
chain: GSSEGYLHMVH
inactive: SHP2 C-SH2 domain E139D 0.765 | [1] 0.757 | SHP2 N-SH2 domain L43F 0.75 | SHP2 N-SH2 domain T42A 0.896 | SHP2 N-SH2 domain T52S 0.731 | [2] 0.781

B16: NEU1_Y242 (peptide)
chain: GASWRYGSGVS
inactive: SHP2 C-SH2 domain E139D 0.789 | [1] 0.647 | SHP2 N-SH2 domain L43F 0.768 | SHP2 N-SH2 domain T42A 0.583 | SHP2 N-SH2 domain T52S 0.703 | [2] 0.776

B17: NF1_Y2508_T2507I (peptide)
chain: YLAAIYPTVGQ
inactive: SHP2 C-SH2 domain E139D 0.898 | [1] 1.21 | SHP2 N-SH2 domain L43F 0.995 | SHP2 N-SH2 domain T42A 0.908 | SHP2 N-SH2 domain T52S 1.14 | [2] 0.901

B18: NFIX_Y40_R38C (peptide)
chain: ARKCKYFKKHE
inactive: SHP2 C-SH2 domain E139D 0.533 | [1] 0.409 | SHP2 N-SH2 domain L43F 0.481 | SHP2 N-SH2 domain T42A 0.415 | SHP2 N-SH2 domain T52S 0.544 | [2] 0.432

B19: NFKB1_Y582_R578K (peptide)
chain: MKNDLYQTPLH
inactive: SHP2 C-SH2 domain E139D 1.12 | [1] 0.804 | SHP2 N-SH2 domain L43F 1.17 | SHP2 N-SH2 domain T42A 0.967 | SHP2 N-SH2 domain T52S 1 | [2] 1.51

B20: NLRP7_Y318 (peptide)
chain: AQQPIYVRVEG
inactive: SHP2 C-SH2 domain E139D 0.995 | [1] 0.714 | SHP2 N-SH2 domain L43F 0.928 | SHP2 N-SH2 domain T42A 0.833 | SHP2 N-SH2 domain T52S 0.783 | [2] 0.844

B21: NF1_Y1169_G1166D (peptide)
chain: SIDLGYHKDLQ
inactive: SHP2 C-SH2 domain E139D 0.649 | [1] 0.667 | SHP2 N-SH2 domain L43F 0.804 | SHP2 N-SH2 domain T42A 0.613 | SHP2 N-SH2 domain T52S 0.79 | [2] 0.592

B22: NEU1_Y242_G243R (peptide)
chain: GASWRYRSGVS
inactive: SHP2 C-SH2 domain E139D 0.44 | [1] 0.491 | SHP2 N-SH2 domain L43F 0.42 | SHP2 N-SH2 domain T42A 0.314 | SHP2 N-SH2 domain T52S 0.606 | [2] 0.331

B23: NF1_Y2503_T2507I (peptide)
chain: KGSEGYLAAIY
inactive: SHP2 C-SH2 domain E139D 0.709 | [1] 0.536 | SHP2 N-SH2 domain L43F 0.7 | SHP2 N-SH2 domain T42A 0.627 | SHP2 N-SH2 domain T52S 0.724 | [2] 0.656

B24: NGEF_Y289 (peptide)
chain: SEASYYKSLNL
inactive: SHP2 C-SH2 domain E139D 0.789 | [1] 0.854 | SHP2 N-SH2 domain L43F 0.711 | SHP2 N-SH2 domain T42A 0.763 | SHP2 N-SH2 domain T52S 0.737 | [2] 0.795

B25: NF1_Y2192 (peptide)
chain: FSPGSYERETF
inactive: SHP2 C-SH2 domain E139D 0.735 | [1] 0.8 | SHP2 N-SH2 domain L43F 0.791 | SHP2 N-SH2 domain T42A 0.551 | SHP2 N-SH2 domain T52S 0.66 | [2] 0.732

B26: NFKB1_Y582 (peptide)
chain: MRNDLYQTPLH
inactive: SHP2 C-SH2 domain E139D 1.02 | [1] 0.984 | SHP2 N-SH2 domain L43F 0.824 | SHP2 N-SH2 domain T42A 0.857 | SHP2 N-SH2 domain T52S 0.69 | [2] 1.26

B27: NKAPL_Y91 (peptide)
chain: SWSTSYSGYRY
inactive: SHP2 C-SH2 domain E139D 1.23 | [1] 1.4 | SHP2 N-SH2 domain L43F 1.06 | SHP2 N-SH2 domain T42A 1.19 | SHP2 N-SH2 domain T52S 0.914 | [2] 1.25

B28: NF1_Y2503 (peptide)
chain: KGSEGYLAATY
inactive: SHP2 C-SH2 domain E139D 0.808 | [1] 0.736 | SHP2 N-SH2 domain L43F 0.723 | SHP2 N-SH2 domain T42A 0.565 | SHP2 N-SH2 domain T52S 0.648 | [2] 0.906

B29: NF1_Y2508_V2511L (peptide)
chain: YLAATYPTLGQ
inactive: SHP2 C-SH2 domain E139D 0.743 | [1] 0.773 | SHP2 N-SH2 domain L43F 0.773 | SHP2 N-SH2 domain T42A 0.67 | SHP2 N-SH2 domain T52S 0.769 | [2] 0.685

B30: NKAPL_Y91_Y96C_YF (peptide)
chain: SWSTSYSGFRC
inactive: SHP2 C-SH2 domain E139D 0.88 | [1] 1.17 | SHP2 N-SH2 domain L43F 0.816 | SHP2 N-SH2 domain T42A 0.819 | SHP2 N-SH2 domain T52S 0.87 | [2] 1.12

B31: NKAP_Y104 (peptide)
chain: VYYGSYSRPYG
inactive: SHP2 C-SH2 domain E139D 1.18 | [1] 1.67 | SHP2 N-SH2 domain L43F 1.33 | SHP2 N-SH2 domain T42A 1.21 | SHP2 N-SH2 domain T52S 1.23 | [2] 1.05

B32: NEU1_Y251 (peptide)
chain: VSGIPYGQPKQ
inactive: SHP2 C-SH2 domain E139D 0.657 | [1] 0.57 | SHP2 N-SH2 domain L43F 0.604 | SHP2 N-SH2 domain T42A 0.588 | SHP2 N-SH2 domain T52S 0.78 | [2] 0.889

B33: NKAP_Y104_YF (peptide)
chain: VFFGSYSRPFG
active: SHP2 N-SH2 domain L43F 3.38 | SHP2 N-SH2 domain T42A 3.52 | SHP2 N-SH2 domain T52S 3.58
inactive: SHP2 C-SH2 domain E139D 2.51 | [1] 2.47 | [2] 2.89

B34: NMNAT1_Y64_R66W (peptide)
chain: GLIPAYHWVIM
inactive: SHP2 C-SH2 domain E139D 0.868 | [1] 0.869 | SHP2 N-SH2 domain L43F 0.846 | SHP2 N-SH2 domain T42A 0.821 | SHP2 N-SH2 domain T52S 0.708 | [2] 1.09

B35: NHS_Y1532_S1531T (peptide)
chain: RSDSTYRMSAT
inactive: SHP2 C-SH2 domain E139D 0.658 | [1] 0.592 | SHP2 N-SH2 domain L43F 0.581 | SHP2 N-SH2 domain T42A 0.651 | SHP2 N-SH2 domain T52S 0.642 | [2] 0.392

B36: NID2_Y449_G453D (peptide)
chain: IVLRSYPASDH
inactive: SHP2 C-SH2 domain E139D 1.18 | [1] 0.914 | SHP2 N-SH2 domain L43F 0.889 | SHP2 N-SH2 domain T42A 0.85 | SHP2 N-SH2 domain T52S 0.941 | [2] 1.57

B37: NEIL3_Y71_V76M_YF (peptide)
chain: SLFNGYVFSGM
inactive: SHP2 C-SH2 domain E139D 1.73 | [1] 1.45 | SHP2 N-SH2 domain L43F 1.61 | SHP2 N-SH2 domain T42A 1.56 | SHP2 N-SH2 domain T52S 1.45 | [2] 1.34
